Laboratory results as given in the supplement of paper PMC3334620.
The full ranking holds about 33,000 sequences; the median of “E-score (-0.5 to 0.5)” is about -0.016, and the highest 2% start at about 0.32. Some of the results follow.

molecular target: T1, Stp1 (UniProt B3LFK1); experiment: PBM E-score (8-mer binding enrichment) (E-score (-0.5 to 0.5)); higher = stronger / more preferred TF binding; most listed sequences are background and not binding sites; conditions: protein concentration: 200 nM; construct: GST-full length
T1 sequence: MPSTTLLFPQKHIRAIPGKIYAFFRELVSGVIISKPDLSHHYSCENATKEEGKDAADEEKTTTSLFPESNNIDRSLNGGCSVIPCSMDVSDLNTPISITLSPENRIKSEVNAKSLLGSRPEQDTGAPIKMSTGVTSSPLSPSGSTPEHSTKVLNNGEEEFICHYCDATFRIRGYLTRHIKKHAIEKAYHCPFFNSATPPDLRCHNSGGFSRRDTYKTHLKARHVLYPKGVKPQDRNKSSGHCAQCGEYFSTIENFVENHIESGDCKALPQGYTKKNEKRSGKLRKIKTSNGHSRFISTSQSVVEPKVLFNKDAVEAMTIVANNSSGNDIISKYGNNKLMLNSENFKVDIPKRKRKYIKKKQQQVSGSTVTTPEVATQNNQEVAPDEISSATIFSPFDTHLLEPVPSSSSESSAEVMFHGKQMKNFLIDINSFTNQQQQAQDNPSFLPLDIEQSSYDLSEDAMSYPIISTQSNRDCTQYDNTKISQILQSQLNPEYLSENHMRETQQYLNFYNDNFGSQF
Procedure, shortened: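 Universal all-10-mer Agilent arrays, double-stranded by primer extension on fresh or once-stripped slides, were probed with about 100-200 nM GST-tagged yeast transcription factors made by PURExpress. Fluorescent anti-GST detected bound protein, and masliner normalised the scans. E-scores from the Universal PBM Analysis Suite were given to each ungapped eight-base word pooled with its reverse complement.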

| Sequence | PBM E-score |
| --- | --- |
| CACATTCG | 0.14 |
| AGTCCACG | 0.00627 |
| ATTACCGA | -0.0698 |
| AGATTATC | 0.0843 |
| AAATGATG | -0.034 |
| AACGACAA | 0.18 |
| GACGGAGC | -0.11 |
| ACAATCAA | 0.187 |
| CCCTAGCG | -0.267 |
| CAACAGAC | 0.0307 |
| TGACGGCA | 0.175 |
| AATGTACT | 0.0843 |
| CTAGTCCC | -0.32 |
| CAGAAAAC | 0.138 |
| ACGGCTCG | 0.444 |
| GTCAACAC | -0.0264 |
| CAGCTGTA | -0.112 |
| TATTCGAA | -0.11 |
| CACCGGTA | -0.0908 |
| GTACGCAC | -0.0915 |
| GAGTCCAA | -0.0353 |
| AATAGAAT | 0.115 |
| GGTACACC | -0.164 |
| ATCACTAG | -0.108 |
| CCATCGTC | -0.0307 |

| Sequence | PBM E-score |
| --- | --- |
| CACTGGTA | -0.0447 |
| AGCAGGCT | -0.098 |
| CCAGAACG | 0.184 |
| ACCGGTCA | -0.132 |
| ATCGCCCG | -0.07 |
| ACTGTCAA | 0.0309 |
| ATGGTGCA | -0.0786 |
| CTTGAGTC | -0.198 |
| ATAGAGCG | -0.0336 |
| TACCGTGA | 0.0845 |
| GAGACGGA | 0.065 |
| CTTACATC | -0.0207 |
| AATTGCCC | 0.0223 |
| ACTTCTCT | -0.0547 |
| CTGACTTA | 0.0141 |
| GGTCTACA | -0.0389 |
| AAAGCTCG | -0.0977 |
| GTAAATGA | 0.0553 |
| ACTAATAT | 0.139 |
| AACGCAAC | 0.166 |
| ATCGGTCG | 0.00039 |
| GGCACCAA | 0.393 |
| ATTCGGAC | 0.179 |
| GATGTAGA | -0.00979 |
| GTTGGTGA | -0.0662 |

| Sequence | PBM E-score |
| --- | --- |
| ATTTGAGG | 0.0129 |
| GGTCACTA | -0.208 |
| CAGATGGC | 0.144 |
| CATATGGC | 0.207 |
| ACATGAAA | -0.121 |
| CGGGACAA | -0.107 |
| AATTACAT | 0.0379 |
| TGCGACCA | 0.0362 |
| GGCTCCGA | -0.00311 |
| AAATGTGC | 0.183 |
| AAGAACCA | -0.0227 |
| AATACGCT | -0.182 |
| AATTCAGT | -0.0742 |
| CAGGGAAC | -0.0813 |
| AGCCAAAG | -0.00729 |
| TCTCGGAA | 0.00252 |
| CATTCGAG | 0.0306 |
| AATTAAGG | -0.182 |
| CCGTGTGA | 0.303 |
| CGTGCAGA | 0.0736 |
| AAAGAAGT | 0.0744 |
| ACTGAGCA | -0.16 |
| ATGGGGGA | -0.364 |
| CAACTTGA | 0.16 |
| GTCGATAA | 0.0626 |

| Sequence | PBM E-score |
| --- | --- |
| AGATGGAC | -0.0364 |
| ATTCGGTA | 0.151 |
| GACTCATC | -0.209 |
| CAGGTGCC | 0.127 |
| ACGCACGG | 0.419 |
| AAACCTAA | -0.0315 |
| GAAGAACA | 0.0998 |
| ACAGGAAG | 0.147 |
| CCAACAAA | 0.167 |
| ACACAGCT | -0.203 |
| TAGGTGCA | -0.227 |
| AACGAATT | 0.0401 |
| GAAGATTA | 0.0958 |
| TCATCACA | -0.0752 |
| GATTTCTA | 0.168 |
| AGTTGACC | -0.0773 |
| CCAGAGAC | -0.19 |
| CATTGCAG | 0.0465 |
| CGACGGTA | 0.015 |
| CGAGAGGA | -0.0592 |
| ATAGCTAG | -0.182 |
| GTCAAGGA | -0.146 |
| CCCAGCAA | -0.132 |
| GCTAACCC | -0.212 |
| CTTTGGGC | -0.0803 |

| Sequence | PBM E-score |
| --- | --- |
| CAACGCTA | 0.0424 |
| CGCAACCA | -0.154 |
| AATGCGCT | -0.199 |
| ACGAATGG | 0.0871 |
| CTGTGGCC | 0.0391 |
| AGCTGTTC | -0.167 |
| CAATTAAG | 0.0879 |
| AAACAGGT | 0.0641 |
| AAAGCAAA | 0.229 |
| CACCCATC | -0.13 |
| GACCGTGA | -0.0295 |
| CTATAAAG | -0.0418 |
| GATTTGCC | 0.219 |
| AGCTACCA | -0.228 |
| AATCAGGT | 0.22 |
| TCAACTCA | -0.123 |
| GAGCCAAA | -0.0536 |
| AATCTCCC | -0.268 |
| AAGTTCAA | 0.0913 |
| ATGCAAGG | -0.0396 |
| AAAATATA | 0.192 |
| AGTTTGGA | 0.0815 |
| GCCGCACA | 0.452 |
| ATATAACC | -0.13 |
| GCAGCCCA | -0.213 |

| Sequence | PBM E-score |
| --- | --- |
| AAACCTAG | -0.137 |
| CCCTTTGA | -0.117 |
| AAGAAGGG | -0.162 |
| GGAAGAAA | 0.126 |
| TAGGGACA | -0.0441 |
| GCCAGGAC | -0.195 |
| AACAGCTA | -0.0534 |
| GAAGAGAC | 0.0735 |
| CACAACCC | -0.22 |
| CATTTAGC | 0.134 |
| GTAGAAGA | -0.131 |
| AATACGAA | 0.158 |
| CCGCCCTA | -0.041 |
| CCATATAA | 0.134 |
| AGCGTGCG | 0.237 |
| AACTGATT | -0.116 |
| GGAAGACC | -0.313 |
| ACGCCGAT | 0.23 |
| GAGCGTAA | 0.0231 |
| AGCCAACT | -0.143 |
| AGTATACT | -0.203 |
| CACCGGGA | -0.221 |
| ATTAGAAA | 0.0859 |
| GCAAAGGC | 0.188 |
| CACATAAG | -0.01 |

| Sequence | PBM E-score |
| --- | --- |
| ACGCTCTA | -0.189 |
| CTTTCCCA | -0.0508 |
| CGCTGCGA | -0.0861 |
| GGTGCCAC | 0.156 |
| TAATGATA | 0.232 |
| AAAATGAT | 0.142 |
| AAAGTTGG | -0.0678 |
| AGCGTAAC | 0.0577 |
| GACGAGTC | -0.0923 |
| CCGTTACG | 0.046 |
| CTAAGTAA | 0.107 |
| ACGTAACG | -0.0448 |
| AGGCACCT | 0.135 |
| AATCTGCT | 0.0271 |
| AGGTTGCC | -0.0941 |
| CTCAATCA | 0.0902 |
| CCTGGCCC | -0.0193 |
| AGCGCAAG | -0.14 |
| AGTGGGTC | -0.115 |
| CTCCGTCA | -0.191 |
| CGGTGTCA | -0.213 |
| ACTAGATG | 0.125 |
| GAATGAAA | 0.126 |
| CTTATAAG | 0.151 |
| AATTTGTC | -0.0333 |

| Sequence | PBM E-score |
| --- | --- |
| ATGCTCTA | 0.108 |
| CGGGTGAG | -0.0991 |
| TATAAGAA | -0.059 |
| CCTGCCAC | 0.19 |
| TCCGACAA | 0.0357 |
| CTTTTCGC | 0.229 |
| TCAAAACA | 0.119 |
| AACGTAGA | 0.0213 |
| CTCTTGCC | -0.0358 |
| ATCCGCAA | 0.00147 |
| CAACTCCG | -0.137 |
| AGCTAAGC | -0.118 |
| AACGGGTG | -0.0602 |
| CCCCGGCG | -0.174 |
| ACCCGCTG | -0.234 |
| CTCCGACC | -0.265 |
| AAAGCTCC | -0.157 |
| AACACTCC | 0.0466 |
| ATGCCGTC | 0.406 |
| GCTTAATA | 0.0221 |
| GCTTACCC | -0.138 |
| AAGTATGC | 0.0754 |
| ATATTTCG | 0.226 |
| AAACGGGC | 0.148 |
| TCACTCAA | -0.0432 |

| Sequence | PBM E-score |
| --- | --- |
| GATGGGAC | -0.263 |
| GATGTAAC | -0.016 |
| ATTCGTTG | 0.0381 |
| CATTCGAA | 0.0574 |
| ATGGTCTG | -0.0392 |
| ACCCAAAG | -0.107 |
| GTGTAGCA | -0.202 |
| CCTGCTTC | -0.24 |
| CATATGCA | 0.0227 |
| GTGCAAAC | -0.0949 |
| GGAAGGCC | -0.0954 |
| CGGGAGCC | 0.0161 |
| CCTGTCCG | -0.0984 |
| CACCCGGG | -0.234 |
| CCAGAAAG | 0.0349 |
| AAGGCAGC | 0.239 |
| ACATATTG | 0.164 |
| AGCTTACT | 0.0367 |
| TACGAAGA | 0.0422 |
